From the supplement of paper PMC5499739
The full ranking holds about 16,000 sequences; the median of “Z-score” is about -0.37, and the highest 2% start at about 3.1. This is one part of the list.

Each sequence was assayed on RBM10 RRM1-ZnF-RRM2 (GST-tagged construct) (assay: RNAcompete 7-mer binding Z-score; higher = stronger binding preference).
Outline: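 In 1 ml Hepes pH 7.8 buffer with KCl, NaCl, glycerol, DTT, BSA and glutathione Sepharose beads, GST-tagged RBM10 constructs (20 pmol) were incubated for 30 min at 4°C with 1.5 nmol of a designed pool of 241 399 RNAs up to 41 nt. Four 2-min washes at 4°C followed, and bound RNA was detected by microarray hybridisation. Heptamer motif enrichment was expressed as a one-sided Z-score across probes containing each motif.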

| Sequence | RNAcompete 7-mer binding Z-score |
| --- | --- |
| UUCGCAG | -0.366 |
| CAGGCAG | 1.17 |
| AUCACCC | -0.752 |
| UGCGUCA | -0.475 |
| AGAUAGC | -0.271 |
| ACUACGU | -0.471 |
| UCUCUCA | -0.836 |
| AACCAGU | -0.235 |
| ACGCAAC | -0.479 |
| GUUGGAC | 1.04 |
| CUAAUAU | -0.533 |
| AGUCUAG | -0.067 |
| UUCGGAG | 0.188 |
| UGUUAUG | -0.38 |
| UGAACGC | -0.0925 |
| ACACGUC | -0.657 |
| GAUUUAA | -0.333 |
| GCAGGCA | 0.833 |
| CAUUCUA | -0.821 |
| GGUACGG | 2.47 |
| CUUAUCU | -0.839 |
| UUGAUUU | -0.602 |
| GAGAUUA | 0.385 |

| Sequence | RNAcompete 7-mer binding Z-score |
| --- | --- |
| UCUAGCA | -0.712 |
| AUCACGC | -0.442 |
| GCUUGUC | -0.821 |
| UAUUCUC | -0.672 |
| AGCCCUA | -0.828 |
| CCUAUUU | -0.996 |
| AAAUUCC | -0.737 |
| UGCGAAC | 0.0131 |
| AUCCUUA | -0.697 |
| GACCCAC | -0.803 |
| GCUUACC | -0.646 |
| AUCGAAC | -0.26 |
| UCACUGC | -0.785 |
| GAACGGG | 4.29 |
| GCUGUCA | -0.628 |
| AACCCAU | -0.839 |
| GUGAACU | 0.173 |
| CCGCACC | -0.664 |
| AGAGGAU | 1.34 |
| ACCCAUA | -0.843 |
| UAGCUAG | -0.216 |
| GACAGCC | -0.5 |
| CAACGCA | -0.5 |

| Sequence | RNAcompete 7-mer binding Z-score |
| --- | --- |
| UGUGAGC | 0.184 |
| UCGUAAC | -0.486 |
| GUGCUAU | -0.202 |
| CUCUCUC | -0.763 |
| CUAAGCG | -0.442 |
| GAGUUGG | 2.91 |
| AGCCAUG | -0.464 |
| AAAGGAA | 3.51 |
| UCAGGCU | -0.246 |
| AAUCUAA | -0.515 |
| GUGCGAC | 0.294 |
| CUUUGAG | -0.664 |
| AACACCG | -0.173 |
| GCGGAUG | 1.64 |
| UCCGCUG | -0.755 |
| CGGAUGG | 1.87 |
| UACUUUA | -0.948 |
| CUCCUGU | -0.876 |
| ACAUAUU | -0.646 |
| GCCUCUG | -0.781 |
| CCCGUGG | 0.312 |
| GAAUAAU | -0.176 |
| CAGAGGU | 1.6 |

| Sequence | RNAcompete 7-mer binding Z-score |
| --- | --- |
| AGCUCUU | -0.836 |
| GGUUUUC | 0.417 |
| CGUUGGU | 0.363 |
| GUACACG | 0.472 |
| GCUUGCU | -0.737 |
| AGUUCGG | 0.202 |
| CACGUGA | -0.0525 |
| CGCUUGA | -0.821 |
| GGUGAAU | 1.48 |
| UGGAGCG | 2.28 |
| AGCGUCA | -0.235 |
| GACAGCG | 0.385 |
| AUAUAAU | -0.366 |
| GGGAUCA | 2.44 |
| CCGGCUC | -0.548 |
| CGGUAAA | 0.352 |
| CAGAGCG | 1.02 |
| GAGAAUA | 0.603 |
| UGCUAGG | 0.355 |
| CGUAUCG | -0.34 |
| UUUAGAA | -0.621 |
| UGUGCGG | 1.33 |
| GGGAAUG | 3.43 |

| Sequence | RNAcompete 7-mer binding Z-score |
| --- | --- |
| AAAAUCU | -0.606 |
| UUAUCCC | -0.748 |
| UUGGACG | 0.949 |
| CUUAUUU | -0.854 |
| CAAGACU | -0.402 |
| AAGUUAA | 0.192 |
| AUGUCAU | -0.497 |
| CGGCGUG | 1.06 |
| CCUCUCA | -0.854 |
| UGGGCAC | 1.77 |
| CCUAUAC | -0.744 |
| ACGUAUA | -0.198 |
| UCUAAGC | -0.774 |
| GGCCACC | -0.533 |
| ACCAUGG | 0.61 |
| GUGGAUA | 2.31 |
| AUAUCGA | -0.173 |
| CAUGUCU | -0.774 |
| CGUGUUA | -0.475 |
| AUACACA | -0.187 |
| UUGGCGA | 0.771 |
| GGGGUCG | 2.56 |
| CGUGUAC | -0.235 |

| Sequence | RNAcompete 7-mer binding Z-score |
| --- | --- |
| GAGGGUA | 4.4 |
| UAAUGGA | 1.64 |
| GUACCUU | -0.602 |
| CGGGUGC | 1.94 |
| UGCCCUC | -0.81 |
| CGCCUCU | -1 |
| CUACCCG | -0.799 |
| GAUGAUG | 1.36 |
| AACUAUU | -0.694 |
| GAUCUCU | -0.846 |
| ACACUAC | -0.653 |
| GAUUAAU | -0.111 |
| CCCCAAG | -0.464 |
| UCUAGAA | -0.617 |
| CUAUGCG | -0.566 |
| GAAUACU | -0.493 |
| AUAGGUA | 2.29 |
| GGAGCAU | 1.58 |
| ACUUACA | -0.668 |
| UAAUCCG | -0.406 |
| AGCCUGU | -0.719 |
| AGCGAAG | 1.07 |
| CGCGUCC | -0.657 |

| Sequence | RNAcompete 7-mer binding Z-score |
| --- | --- |
| CAUUGAG | -0.0743 |
| CAUAGUG | 0.206 |
| CGGGUUA | 1.75 |
| GCGUCCC | -0.471 |
| AUUCGAG | -0.114 |
| GACGAGC | 0.0932 |
| AGUCACU | -0.388 |
| GCGCCAA | -0.464 |
| UACAGCU | -0.537 |
| ACGUUUU | -0.774 |
| GGAUUAA | 0.789 |
| GGCAGUA | 1.57 |
| ACUGGCA | -0.191 |
| AAAGGCG | 2.16 |
| UUCCGGU | -0.431 |
| GUGGCAC | 1.05 |
| GACUGCA | -0.46 |
| AAUGGGU | 4.1 |
| ACGAUGC | -0.271 |
| ACCGGCC | -0.69 |
| UCCGGGU | 0.731 |
| CCGCUCG | -0.526 |
| UGUUAGG | 0.607 |

| Sequence | RNAcompete 7-mer binding Z-score |
| --- | --- |
| ACCUAAG | -0.675 |
| GUAAAGG | 3.36 |
| UCUCAAC | -0.774 |
| AGCCAAC | -0.315 |
| ACGAGAU | 0.0204 |
| ACGAUAA | 0.195 |
| UUUAAAA | -0.595 |
| UAUCAAA | -0.358 |
| AUUAGAU | -0.202 |
| GAAUUAU | -0.195 |
| AGUCCGC | -0.715 |
| GCACGUG | 0.21 |
| GUAACUG | 0.155 |
| CGCGGGU | 1.81 |
| AGGUCUU | -0.402 |
| GACCAUA | -0.675 |
| CUUCCUG | -0.857 |
| GGUUAAC | 1.33 |
| ACGAGGG | 3.71 |
| CGGCCAC | -0.326 |
| UAUGGGC | 1.64 |
| UUCGCCU | -0.927 |
